Source: ChEMBL document CHEMBL4888484, “Replenishing the malaria drug discovery pipeline: Screening and hit evaluation of the MMV Hit Generation Library 1 (HGL1) against asexual blood stage Plasmodium falciparum ,using a nano luciferase reporter read-out” (2022)
The campaign covered roughly 150,000 compounds. About 540 (0.36%) showed an effect of 50% or more. This is one part of the list.

System: Plasmodium falciparum
Experiment: Primary screen in NF54 nanoGlo assay, in single point, at 2uM, 72h; a lower Z score goes with more inhibition
Type: functional, Erythrocyte
Conditions: timepoint 72 hour

Compound	% Inhibition [%]	Z score
COc1cccc(-c2cc3n(C)c(C)c(CCC(=O)Nc4ccc(C)cc4)c(=O)n3n2)c1	-13	1.57
CN(C)[C@H](c1ccc2c(c1)OCO2)c1nc(C2CC2)nn1-c1ccccc1	-4	0.57
Nc1ncnc(N2CCC[C@]3(CNC(=O)C3)C2)c1Cl	-4	0.68
CC(C)C(=O)NCCNC(=O)N(Cc1cccc(Cl)c1)C(C)C	-10	1.29
COc1cc(CN2[C@@H]3CC[C@H]2CN(C)C(=O)C3)ccc1N1CCCC1	14	-2.15
COCc1nc(CC(C)C)nc(N2CCN(C(=O)c3ccco3)CC2)c1Cc1cccc(Cl)c1	-10	1.21
O=C(N[C@H]1CCOC[C@H]1C1CCOCC1)c1cncc(F)c1	-2	0.41
Cc1nc(-c2cccnc2)nc2c1CC(=O)N2C(C)C	-13	1.77
CCOc1ccccc1N(C)C(=O)CCOC	-4	0.36
COc1ccc(-c2cc(N3CC[C@H](NC(=O)c4ccc(C)cc4)C3)[nH]n2)cc1	-10	1.05
NCc1ncc(-c2ccc(O[C@H]3CCOC3)cc2)cn1	-6	0.59
Cc1nc(C)c([C@H](C)NC(=O)CCC(=O)c2ccc(Cl)cc2)s1	2	-0.23
COc1ccc([C@@H]2CCCN2C(=O)CNC(C)(C)c2nccs2)cc1OC	0	0.01
CCC(=O)N1CCN(C(=O)c2cc3n(n2)CCCC3)CC1	-6	0.88
O=C(c1cc(-n2cccn2)ccc1Cl)N1CCO[C@]2(CNCCOC2)C1	-12	1.51
O=C(O)CCNC(=O)CCCc1ccc(F)c(F)c1	0	-0.09
COCCN1CC2(CCC1=O)CCN(Cc1nnc(C(C)C)o1)CC2	-5	0.72
Cn1nc(CNC(=O)c2ccc(S(=O)(=O)N3CCOCC3)cc2)cc1C1CC1	-8	1.44
CC1CC(NC(=O)Cc2c(Cl)cccc2Cl)C(=O)O1 (stereo unspecified)	-5	1.02
CCOc1cc(C2NC(=O)c3c(n[nH]c3C)N2)ccc1OC(C)C(=O)N(C)C (stereo unspecified)	0	0.1
CCc1nc(N2CCN(S(=O)(=O)c3ccccc3)CC2)c2c(C)nn(-c3ccccc3C)c2n1	-16	1.55
Cc1ccc(S(=O)(=O)Cc2cn3ccc(C)cc3n2)cc1	-37	4.31
COc1ccc(-n2cc(-c3cccc(OC)c3)nc2NC(=O)CN(CC2CC2)S(=O)(=O)c2ccc(Cl)cc2)cc1	-18	2.56
